Key:
cross-linking = biological target: the molecule itself; assay: cross-linking
[1] = biological target: the molecule itself; assay: breakpoint of thermal midpoint

B1: Val100Gly cpn10 (human mitochondrial cpn10 with valine-100 replaced by glycine) (natural protein)
chain: not shown
stoichiometry N (cross-linking): 7 | Kd [1]: ~5 µM
